Out of some 410,000 compounds screened, about 5,000 (1.2%) were called active. The inconclusive results got no clear call from the source; some entries with a clear call stand among them for comparison. Calls come from the whole dose curve; as a rule, active = well fitted inhibition curve with a large enough effect; inconclusive = small, poorly fitted or top-dose-only effect; inactive = no such curve, though single readings can be large or run the other way. Where the call is inconclusive, the potency comes from a doubtful curve fit.
experiment: qHTS for Inhibitors of TGF-b; conditions: HepG2 CAGA-GFP TGF-b/SMAD3 reporter, GFP fluorescence, 18 h, TGF-beta stimulated, 500 pg/mL final; series mostly up to 46.1 µM; note: nearly all actives have a fitted effect of over 65% in size
Procedure, shortened: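 Using HEPG2 CAGA-GFP reporter cells at 1000 cells/well, we pinned test compounds, stimulated with recombinant TGF-beta (500 pg/mL final) and measured total well GFP after 18 h.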
Potency is the fitted concentration of half-maximal effect; tags give direction and shape of the fitted curve.

SMILES | Potency
CC(C)CC1(C(=O)NCCN2CCOCC2)C=CCN1C(=O)c1ccccc1 (stereo unspecified) | inconclusive: 6.31 µM [inhibitor, single point]
CCCOC(=O)c1ccc(NC(=O)c2ccccc2[N+](=O)[O-])cc1 | inactive
COCCNC(=O)/C(C#N)=C/c1ccc(-c2ccc(S(=O)(=O)N3CCOCC3)cc2)o1 | inactive
CC1=C(C(=O)Nc2cccnc2)C(c2ccccc2Cl)n2nc(-c3ccccc3)nc2N1 (stereo unspecified) | inactive
O=[N+]([O-])c1ccccc1/C=C/C=N/n1c(-c2ccccc2)n[nH]c1=S | inactive
CC1CCCC(C)N1CCCNC(=O)c1cc2c(s1)-c1ccccc1OC2 (stereo unspecified) | inconclusive: 22.4 µM [inhibitor, single point]
CCN(CC)CC(=O)Nc1nc(-c2ccc(Cl)cc2)cs1 | inactive
Cc1cccc(Nc2nc3c(S(=O)(=O)c4ccc(Br)cc4)nnn3c3ccsc23)c1C | inconclusive: 0.251 µM [inhibitor, full curve, poor fit]
O=C(O)c1ccc(CSc2nc(-c3ccc(Cl)cc3)cc(C(F)(F)F)n2)cc1 | inconclusive: 35.5 µM [inhibitor, single point]
CCN(CC)C(=O)c1ccccc1NS(=O)(=O)c1cccs1 | inconclusive: 17.8 µM [inhibitor, single point]
Cc1ccccc1CC1(CO)CCCN(Cc2nc(-c3cccs3)oc2C)C1 (stereo unspecified) | inconclusive: 8.91 µM [inhibitor, partial curve]
Cc1ccc(-n2c(SCC(=O)Nc3cc(C)on3)nc3c([nH]c4ccccc43)c2=O)cc1 | inconclusive: 17.8 µM [inhibitor, single point]
c1ccc(Cn2nnnc2C(c2ccccn2)N2CCN(c3ccccc3)CC2)cc1 (stereo unspecified) | inconclusive: 2.82 µM [inhibitor, single point]
Cc1nn(C)c(Oc2ccccc2)c1CCNC(=O)C(C)(C)C | inactive
CCOC(=O)C1CCN(C(=O)Cn2ncc3c4ccccc4n(Cc4ccccc4)c3c2=O)CC1 | inconclusive: 35.5 µM [inhibitor, single point]
CC1CCN(C(=O)CSc2nnc(NC(=O)Nc3ccccc3)s2)CC1 | inconclusive: 35.5 µM [inhibitor, single point]
CCOc1ccc(N(CC(=O)Nc2ccc(OC)cc2)S(=O)(=O)c2c(C)noc2C)cc1 | inactive
Oc1ccc(-c2csc(Nc3cccc4ccccc34)n2)cc1O | inconclusive: 12.6 µM [inhibitor, partial curve, poor fit]
Cc1ccccc1C(=O)N1CCN=C1SCc1ccc([N+](=O)[O-])cc1 | inactive
Cc1ccc(NC(=O)NC(=O)CN2CCCC2c2ccc3c(c2)OCCO3)cc1C (stereo unspecified) | inactive
O=C(CCN1C(=O)/C(=C/c2cccs2)SC1=S)NC1=NCCS1 | inconclusive: 6.31 µM [inhibitor, single point]
COc1cc(C(=O)Nc2cc(-c3ccccc3)[nH]n2)cc(OC)c1OC | inactive

SMILES | Potency
COC(=O)[C@H]1C[C@@H]1[C@H](NC(=O)c1cnccn1)c1ccccc1 | inconclusive: 2.24 µM [inhibitor, partial curve, poor fit]
Cc1ccc(N2C(=O)CCSC23C(=O)N(Cc2ccc(F)cc2)c2ccccc23)cc1 (stereo unspecified) | inconclusive: 35.5 µM [inhibitor, single point]
CCN(C[C@H]1N[C@@](Cc2ccccc2)(C(=O)OC)[C@H]2C(=O)N(Cc3ccccc3)C(=O)[C@@H]12)S(=O)(=O)c1ccc(-c2ccccc2)cc1 | inactive
CN1CCN(c2ccc(S(=O)(=O)N3CCOCC3)cc2NC(=O)COc2ccc(F)cc2Cl)CC1 | inactive
COc1ccc(-c2ccc(N(C)C)cc2)cc1[C@H]1[C@@H]2C=CCC[C@@]2(C)C(=O)N1Cc1ccccc1 | inconclusive: 15.8 µM [inhibitor, single point]
COc1ccc(Cl)cc1NC(=O)C1CCN(S(=O)(=O)c2ccc(F)cc2)CC1 | inconclusive: 15.8 µM [inhibitor, single point]
COc1ccc(CN2C(=O)CS/C2=N/N=C/c2ccccc2)cc1 | inconclusive: 3.98 µM [inhibitor, full curve, poor fit]
O=C(Nc1ccccc1)N1CCN(c2nc(-c3ccccc3)ns2)CC1 | inconclusive: 35.5 µM [inhibitor, single point]
Cc1ccc(Cc2nc3ccccc3nc2SCC(=O)NCc2ccccc2Cl)cc1 | inconclusive: 2 µM [inhibitor, partial curve, poor fit]
CC1CCN(CC(O)CN2c3ccccc3Sc3ccccc32)CC1 (stereo unspecified) | inactive
Cc1ccc(NC(=O)c2sc3ccccc3c2Cl)nc1 | inactive
CN(C(=O)c1cccc(NC(=O)Cc2cccc(NC(=O)C3CCCN(C(=O)C4CCC4)C3)c2)c1)C1CCC1 (stereo unspecified) | inconclusive: 10 µM [inhibitor, partial curve, poor fit]
Cc1ccc(S(=O)(=O)N2CCCC2CNC(=O)C(=O)NCc2ccccn2)cc1 (stereo unspecified) | inactive
CC(C)(C)Cc1c(-c2ccc(Br)cc2)nc2ccc(Cl)cn12 | inconclusive: 35.5 µM [inhibitor, single point]
C[C@H](O)[C@@H]1CN2CCc3c([nH]c4ccccc34)[C@@H]2C[C@@H]1N(C)C(=O)OCc1ccccc1 | inconclusive: 12.6 µM [inhibitor, partial curve, poor fit]
CCc1ccc(OCC(=O)N(C)C2CCS(=O)(=O)C2)cc1 (stereo unspecified) | inconclusive: 3.98 µM [inhibitor, single point]
NC(c1csc(NC(=O)Nc2cccc(Cl)c2)n1)C1CCCCC1 (stereo unspecified) | inconclusive: 35.5 µM [inhibitor, single point]
O=C(NC1CCCC1)c1ccc2c(c1)N(Cc1ccc(F)cc1)CCS2 | inconclusive: 35.5 µM [inhibitor, single point]
COc1ccc(NC(=S)N(CCCN2CCCC2)Cc2cccn2Cc2ccc(Cl)cc2)cc1Cl | active: 3.16 µM
Cc1cccc(CN2C(=O)c3ccccc3S(=O)(=O)c3ccc(C(=O)NC4CCCCC4)cc32)c1 | inactive
CCN(CC)c1ccc2c(Cl)cc(=O)oc2c1 | inconclusive: 35.5 µM [inhibitor, single point]
O=C(Nc1cccc(OC(F)(F)F)c1)c1cccc2c(-c3cccnc3)coc12 | inconclusive: 31.6 µM [inhibitor, single point]

SMILES | Potency
CCC1(c2ccc(F)cc2)NC(=O)N(CC(=O)NCc2ccc(F)cc2)C1=O (stereo unspecified) | inactive
N#CCN1CCN(CC(=O)Nc2ccc(OCc3ccccc3)cc2)CC1 | inconclusive: 3.16 µM [inhibitor, partial curve, poor fit]
Cc1ccc(C2(C)NC(=O)N(CC(=O)Nc3cc(S(=O)(=O)N4CCOCC4)ccc3C)C2=O)cc1 (stereo unspecified) | inconclusive: 0.199 µM [inhibitor, full curve, poor fit]
C[C@@H]1CN([C@H](C)CO)C(=O)c2cc(NC(=O)Nc3ccc(F)cc3)ccc2O[C@H]1CN(C)C(=O)Nc1ccc(C(F)(F)F)cc1 | inconclusive: 31.6 µM [inhibitor, single point]
CCOC(=O)c1c(C)nc2sc(C(N)=O)c(N)c2c1-c1ccc(OC)cc1 | inactive
CN1CCN(CC(O)COC(c2ccc(Cl)cc2)c2ccc(Cl)cc2)CC1 (stereo unspecified) | inconclusive: 35.5 µM [inhibitor, single point]
CCOc1ccc(S(=O)(=O)N(CC)CC(=O)N2CCCC2)cc1C | inconclusive: 12.6 µM [inhibitor, partial curve]
O=C(Nc1nccs1)c1ccc(-c2ccccc2Cl)o1 | inconclusive: 22.4 µM [inhibitor, single point]
CCOC(=O)Cc1ccc2sc(-c3ccccc3)nc2c1 | inconclusive: 6.31 µM [inhibitor, single point]
COc1ccc(Oc2ccc(C(F)(F)F)cc2NC(=O)c2ccc(F)cc2)cc1 | inactive
CC1(C)CC(=O)C2=C(C1)N(CCN1CCOCC1)C1=C(C(=O)CC(C)(C)C1)C2c1cccc(F)c1 | inconclusive: 35.5 µM [inhibitor, single point]
C/C(=N\Nc1nc(-c2cc(C)ccc2C)cs1)c1cc2c(ccc3ccccc32)oc1=O | inactive
CCOC(=O)c1ccc(-c2ccc(C3Nc4ccccc4C(=O)N3O)o2)cc1 (stereo unspecified) | inconclusive: 10 µM [inhibitor, partial curve, poor fit]
O=S(=O)(c1ccc2c(c1)OCCO2)N1C[C@@H]2C[C@H]1CN2S(=O)(=O)c1c(F)cccc1F | inconclusive: 1.41 µM [inhibitor, full curve, poor fit]
Cc1ccc(NC(=O)COCC(=O)Nc2ccc(C)cc2)cc1 | inactive
COc1ccc(NC(=O)c2cc3c(=O)n(Cc4cccnc4)ccc3nc2C)c(OC)c1 | inactive
CCC(OC(=O)c1ccc(S(C)(=O)=O)c([N+](=O)[O-])c1)C(=O)NC1C2CC3CC(C2)CC1C3 (stereo unspecified) | active: 4.47 µM
Nc1cc(N)cc(Cc2ccccc2)c1 | inactive
CC(=O)N1CC(C)Sc2ccc(S(=O)(=O)NCc3ccc(Cl)cc3)cc21 (stereo unspecified) | inconclusive: 8.91 µM [inhibitor, partial curve, poor fit]
Cc1cc(=O)c2cc(NC(=O)c3ccccc3Cl)ccc2[nH]1 | inactive
Cc1cc(Nc2ccc(Cl)cc2)n(-c2cccc(Cl)c2)n1 | inconclusive: 35.5 µM [inhibitor, single point]
COc1ccc(-c2nn(-c3ccccc3)cc2C(=O)OCC(=O)c2ccc(C)c([N+](=O)[O-])c2)cc1 | inconclusive: 11.2 µM [inhibitor, single point]

From PubChem BioAssay AID588855 (National Center for Advancing Translational Sciences (NCATS), 2011)
